The other results are listed elsewhere or left out. At the low end of the ranking the order means little.
system: T1, GST-NbGlk1(82-244); assay: protein-binding microarray; settings: NbGlk1 is a Golden2-like transcription factor of Nicotiana benthamiana; high values mean tight binding; most listed sequences are background and not binding sites; double strand, one strand shown;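 also: rank-based score ranging −0.5 to +0.5 with E above 0.45 taken as significant binding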
T1 sequence: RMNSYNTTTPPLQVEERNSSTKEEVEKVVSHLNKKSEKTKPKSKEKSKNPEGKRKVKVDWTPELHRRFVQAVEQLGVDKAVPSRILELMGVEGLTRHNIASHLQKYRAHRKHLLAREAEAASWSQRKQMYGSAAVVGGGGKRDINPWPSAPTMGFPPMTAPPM

Sequence	binding signal
ATAGTATG	-0.0605 E-score
CACTATTA	0.0119 E-score
ATTGCCGC	0.0596 E-score
AATTATAT	0.192 E-score
AGCGATGC	-0.128 E-score
ATACTGAT	0.183 E-score
AAATGACC	-0.113 E-score
AACAGTAA	0.125 E-score
AAACCGAT	0.121 E-score
AGCTTCGC	-0.161 E-score
ACCTTACT	-0.0889 E-score
ACGACCCA	-0.171 E-score
AACAGTTC	-0.144 E-score
ACTCGAAT	0.0921 E-score
AGTTAGCA	0.0967 E-score
ATTACGCG	0.332 E-score
ATTGGCTA	-0.0622 E-score
AAGTACCT	-0.149 E-score
ACAAGTCG	-0.0745 E-score
AGAATCGC	0.377 E-score
ACGCATGG	-0.144 E-score
AGGAACCA	-0.0322 E-score
AGCGAGTC	-0.14 E-score
CACACTCG	-0.0894 E-score
ATGTATCG	-0.133 E-score

Sequence	binding signal
AATGAGTA	0.175 E-score
ACGGATCG	0.177 E-score
AGGCGGCA	-0.0993 E-score
ATCCTTCC	0.118 E-score
AACGGGCA	-0.166 E-score
ACCGACCG	-0.21 E-score
AGTTTAGC	-0.15 E-score
AGATGGCC	-0.207 E-score
CACTTTGA	-0.159 E-score
ATTTTTCC	0.163 E-score
ATAACTAT	0.057 E-score
AAGCTCCC	-0.221 E-score
CAACGCCA	-0.0514 E-score
ACACTCAA	0.0262 E-score
AGCGCTCA	-0.0754 E-score
AAAGTACA	0.0661 E-score
ATGCAACA	0.00172 E-score
ATGAATAA	0.188 E-score
AAGGAACC	-0.141 E-score
AAGACGAA	0.0412 E-score
AACTACCT	-0.0921 E-score
ATATTTGC	0.338 E-score
AGACCCGC	-0.299 E-score
ACCTACAC	-0.0683 E-score
ACCAATCA	-0.0667 E-score

Sequence	binding signal
AGGCCTTC	-0.217 E-score
ATTATTGC	0.109 E-score
ACGTAGTC	-0.241 E-score
ACGACGAC	-0.143 E-score
AGACAAGG	-0.163 E-score
ATCCATTC	0.24 E-score
ATGATCTA	-0.00774 E-score
AATGTCAT	0.118 E-score
AAATGCCA	-0.206 E-score
AGCCGCAG	-0.226 E-score
AACCGCGG	-0.0715 E-score
AGTGTACA	0.0236 E-score
AATGCCCA	-0.059 E-score
AACTTGAT	0.0191 E-score
AATGTCTG	-0.185 E-score
AATTGCGA	0.314 E-score
ATTACGAG	0.361 E-score
ATTAAAGA	0.135 E-score
CACCACCC	-0.0112 E-score
ATTAGAAT	0.166 E-score
AGGTTTGC	-0.0248 E-score
AAACGTGT	-0.0621 E-score
ACCTTAAC	-0.161 E-score
AGGCTAAA	-0.0861 E-score
AACAATCG	0.112 E-score

Sequence	binding signal
AGCGACAA	-0.145 E-score
AGTTAAGA	0.048 E-score
AAGCCACG	-0.141 E-score
ATCCCGTG	0.109 E-score
AAAAGACG	0.153 E-score
ATTCCACC	0.235 E-score
AATGTCGG	0.00227 E-score
CAATAATC	0.207 E-score
AACCTTTC	-0.104 E-score
AAGAAGGA	-0.092 E-score
AGTTACGG	-0.108 E-score
AAATGAGA	0.113 E-score
AGGATGCA	-0.13 E-score
AAACCCCA	-0.272 E-score
CAAACGTC	-0.0703 E-score
ATATGAGG	0.018 E-score
ATTCGGAC	0.0327 E-score
AACCCCGT	-0.168 E-score
AATGGCTC	-0.143 E-score
ATAACCAC	-0.0206 E-score
AGCCGTTG	-0.0848 E-score
AGTTATAG	-0.102 E-score
ATTGAGAA	0.151 E-score
ACGCCTTC	-0.257 E-score
ATTGTACC	0.125 E-score

Sequence	binding signal
AAGTCAAG	-0.154 E-score
CAACTAGC	-0.173 E-score
AAGGTAAC	-0.119 E-score
AGGATGTA	-0.0598 E-score
AATCGAAG	0.285 E-score
AGAACATG	0.0757 E-score
ACCCCTGA	-0.146 E-score
ATATATAA	0.179 E-score
ATCGATAG	0.0926 E-score
AATTCGGT	0.127 E-score
AAATGGTT	-0.0947 E-score
AGACGAAC	-0.0242 E-score
ATCCAACA	0.237 E-score
AGGGTAAA	0.00341 E-score
AAATAGTT	0.114 E-score
ATAGCAGG	-0.133 E-score
AGTCGCGA	0.0157 E-score
ACAAGCAT	-0.138 E-score
ACCTGACA	-0.131 E-score
AACTTATC	0.098 E-score
ATCCTGTC	0.258 E-score
ACCCCCCA	-0.342 E-score
AGATTCGG	0.413 E-score
AAGCCGCG	-0.135 E-score
AATCCAAC	0.348 E-score

Sequence	binding signal
AGCACGGA	-0.0602 E-score
ACCCGCGT	-0.194 E-score
AATTTCCA	0.266 E-score
ACACGCGA	0.0635 E-score
AAGCCCCC	-0.341 E-score
AACTACGC	-0.0991 E-score
AATCCGAA	0.406 E-score
AATCCGGA	0.42 E-score
ACCTTTAT	0.0424 E-score
ACTTGAAT	0.0362 E-score
AACTTTAT	0.0708 E-score
CACACAAC	-0.00267 E-score
ATTATGCG	0.162 E-score
ATTGAGTG	0.052 E-score
AGTTCATG	-0.0855 E-score
ACGGAAGT	-0.143 E-score
ACTCACAT	0.0783 E-score
ACATTAAC	0.0163 E-score
ATAATTCA	0.154 E-score
AACACCCG	-0.237 E-score
AGTGTATC	0.117 E-score
AATGCACT	-0.0512 E-score
AACGTTTA	-0.049 E-score
ATGTCGAC	-0.0465 E-score
ACTGGGCC	-0.235 E-score

Sequence	binding signal
CACTATCA	0.0815 E-score
ACACCCTG	-0.188 E-score
AATGTCCA	-0.0844 E-score
AAGTGTGT	-0.126 E-score
ACGCGTCG	0.0588 E-score
AACCCTAC	-0.0834 E-score
AAAATAAT	0.205 E-score
AATTCTCC	0.151 E-score
ACACGATG	-0.0775 E-score
AGTCCGTG	-0.0354 E-score
ATGAACAA	0.0497 E-score
ATCCATCG	0.137 E-score
AGACCGGC	-0.248 E-score
AATTGAGC	-0.0944 E-score
ACATGGGG	-0.0997 E-score
ACTCCTGG	-0.234 E-score
CACGGGCG	-0.13 E-score
CAAATGGA	-0.059 E-score
ATTCCAGC	0.00815 E-score
ACATGGTA	-0.0226 E-score
ATTCTGCA	0.266 E-score
AACAGGCG	-0.165 E-score

Reference: PMC5836133
